Results from PubChem BioAssay AID686971 (National Center for Advancing Translational Sciences (NCATS), 2013).
Among all 360,000 compounds or so, about 7,500 (2.1%) were called active. The inconclusive results got no clear call from the source; some entries with a clear call stand among them for comparison. Calls follow the shape of the dose curve; as a rule, active = well fitted cell-killing curve with a large enough effect; inconclusive = small, poorly fitted or top-dose-only effect, or effect the other way, or another doubt; inactive = no such curve, though single readings can be large or run the other way. No potency is given beside an inconclusive call; the fits are too rough.

Assay: qHTS for induction of synthetic lethality in tumor cells producing 2HG: qHTS for the HT-1080-IDH1KD cell line;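 as to activity, negative = toxicity: 0% = DMSO wells and -100% = cell-free medium wells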
Details: HT-1080 IDH1 knockdown viability, ATP luminescence, 48 h; activity, negative = toxicity: at 46.1 µM (top of the series) unless noted
Summary of the method: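 HT-1080-IDH1KD cells (IDH1 knocked down), 750/well in RPMI with 5% FBS, treated with compound 48 h at 37 degrees C. Viability by CellTiter-Glo luminescence, normalised to DMSO and no-cell wells; concentration-response curves classed.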
Potency is read from the fitted curve at half-maximal effect; tags tell the direction and shape of the fitted curve.

Row | SMILES | activity, negative = toxicity | Potency
1 | COc1cccc(NC(=O)C2(C)CCN2C(=O)CCc2ccc(Cl)cc2Cl)c1 (stereo not given) | inactive: -18.1% | –
2 | CCN(CC)CCOc1ccc(/C(=C(/Cl)c2ccccc2)c2ccccc2)cc1 | – | active: 18.4 µM
3 | CCN1C(=O)/C(=C/C=C2/Sc3ccc4ccccc4c3N2CCO)SC1=S | inactive: -1.84% | –
4 | Cc1cccc(Oc2cc(NC(=O)Cn3cnc([N+](=O)[O-])n3)cc([N+](=O)[O-])c2)c1 | – | inconclusive [cytotoxic, partial curve]
5 | CN(C)CCNC(=O)C1(C)Cc2c(-c3cccc(C(F)(F)F)c3)ccnc2O1 (stereo not given) | – | inconclusive [cytotoxic, single point]
6 | CC(C)(C)n1nnnc1C(c1cccs1)N(Cc1ccc(Cl)cc1)CC1CCCO1 (stereo not given) | – | inconclusive [cytotoxic, single point]
7 | Cc1cccc(CSc2nc3nc(C)cc(C)n3n2)c1 | inactive: -2.6% | –
8 | C/C(=N\Nc1nc(-c2ccccn2)nc2ccccc12)c1ccc(F)cc1 | – | inconclusive [cytotoxic, partial curve]
9 | COc1oc(C(=O)NC2CCCCC2)c(-c2ccc(Cl)cc2)c1S(=O)(=O)c1ccccc1 | – | inconclusive [cytotoxic, single point]
10 | O=C(Nc1cccc(-c2cccc(F)c2)c1)C1CCN(Cc2ccc(CO)o2)CC1 | – | inconclusive [cytotoxic, single point]
11 | COc1ccc(-c2noc(N3CCC(C(=O)Nc4ccc(F)cc4)CC3)n2)cc1 | inactive: -2.25% | –
12 | COc1ccc(CC2(CO)COc3ccccc3C2=O)cc1 (stereo not given) | – | inconclusive [cytotoxic, partial curve]
13 | Oc1ccc(C[C@H]2CN([C@@H](Cc3ccc(O)cc3)CN3CCC[C@@H]3CN3C(=S)NC[C@@H]3Cc3ccccc3)C(=S)N2CC2CCCCCC2)cc1 | – | active: 16.4 µM
14 | CCOC(=O)c1sc(=NC(=O)c2cccc(OC)c2)n(C)c1C | – | inconclusive [rising, single point]
15 | CN(C)CCNC(=O)c1ccc2c(=O)n(Cc3ccc(Cl)cc3)c(=S)[nH]c2c1 | – | inconclusive [cytotoxic, single point]
16 | O=C(Nc1ccc2nc(-c3cccnc3)[nH]c2c1)C12CC3CC(CC(C3)C1)C2 | – | active: 17.8 µM
17 | COc1ccc(C(C)(C)C)cc1NC(=O)CCc1c(C)noc1C | inactive: -20.8% | –
18 | COc1ccc(Nc2nc(N)c3ccccc3n2)c(OC)c1 | – | inconclusive [cytotoxic, partial curve]
19 | Cc1cccc2cc3c(N)c(C(=O)N4CCc5ccccc54)sc3nc12 | – | inconclusive [cytotoxic, partial curve]
20 | CCN(CC)c1ccc(NC(=O)c2ccc(Cl)nc2)cc1 | – | active: 7.31 µM
21 | OCC1OC(n2cnc3c(NCc4ccco4)ncnc32)C(O)C1O (stereo not given) | – | active: 11.6 µM
22 | COCCNc1nc(Nc2ccc(C)cc2C)c2sc(-c3ccccc3)cc2n1 | – | inconclusive [cytotoxic, single point]
23 | COc1c(C)cc(C(=O)C2CCCN(C(=O)CCc3scnc3C)C2)cc1C (stereo not given) | – | inconclusive [cytotoxic, single point]

Row | SMILES | activity, negative = toxicity | Potency
24 | CCOc1ccc(CN2CCC(C(=O)Nc3cccc(-c4ccn[nH]4)c3)CC2)cc1Cl | – | inconclusive [cytotoxic, single point]
25 | Cc1nc(CN(C)C(=O)c2ccccc2OC2CCN(S(C)(=O)=O)CC2)cs1 | inactive: 14% | –
26 | C[C@H](CO)N1C[C@H](C)[C@@H](CN(C)C(=O)Oc2ccccc2)OCc2cn(nn2)CCCC1=O | inactive: -1.43% | –
27 | Cc1ccc(C(=O)O/N=C(\N)c2ccccn2)c(Cl)c1 | – | inconclusive [cytotoxic, single point]
28 | Cc1cc(C)c2cc(CN(Cc3ccco3)C(=S)NCC3CCCO3)c(=O)[nH]c2c1 (stereo not given) | inactive: -10.2% | –
29 | COc1cccc(OCC(O)CN2CCN(CCN3C(=O)c4cccc5cccc(c45)C3=O)CC2)c1 (stereo not given) | – | inconclusive [cytotoxic, partial curve]
30 | CN1CCc2c(n(CC(O)CNCc3ccccc3)c3ccccc23)C1=O (stereo not given) | – | inconclusive [cytotoxic, single point]
31 | O=[N+]([O-])c1c(Nc2cccc(O)c2)cc(Cl)c2nonc12 | – | active: 8.2 µM
32 | C=C1CC2(OC1=O)c1ccccc1CCc1ccccc12 | – | active: 5.8 µM
33 | Cc1ccc(C)c(N2CCN(CC(=O)Nc3ccc([N+](=O)[O-])cc3C(=O)Nc3ccccc3F)CC2)c1 | – | inconclusive [cytotoxic, single point]
34 | COC(=O)c1cc(S(=O)(=O)N(Cc2ccccc2)C(C)(C)C)c[nH]1 | – | active: 23.1 µM
35 | Cc1c(-c2ccc(OCCN3CCCCC3)cc2)c(=O)oc2ccc3ccccc3c12 | inactive: 10.9% | –
36 | Cc1ccc(NC(=S)NC(=O)c2ccc(F)cc2)cc1S(=O)(=O)Nc1cccc(Cl)c1 | – | active: 2.91 µM
37 | CCCCCCCCN1C(=O)[C@H](CC(=O)NCc2cccc3ccccc23)C[C@@]2(C(=O)OC)CC(C)(C)CC=C12 | – | inconclusive [cytotoxic, single point]
38 | Cc1ccc(N=N/C(=C\O)C(=O)c2ccncc2)cc1 | – | active: 16.4 µM
39 | CC(NC(=O)Nc1nnc(C(F)(F)F)s1)(C(F)(F)F)C(F)(F)F | – | active: 3.26 µM
40 | O=c1c2c3c(sc2nc(NCCO)n1Cc1ccco1)CCCCC3 | – | inconclusive [cytotoxic, single point]
41 | Cc1cc(C)c(S(=O)(=O)c2c(C)cccc2C)c(OCC(C)C)n1 | inactive: -6.79% | –
42 | COC(=O)c1sccc1OCc1cccc(OC)c1 | inactive: 0.577% | –
43 | CCc1c(C2(O)CCCCC2)[nH]c2cc(C(F)(F)F)ccc12 | – | inconclusive [cytotoxic, single point]
44 | CC(=O)OCC1(C)CN(c2ccccc2)N(C(=O)c2ccc(C(C)(C)C)cc2)C1=O (stereo not given) | – | inconclusive [cytotoxic, single point]
45 | NNC(=O)/C(=N/Nc1ccccc1)S(=O)(=O)c1ccc(Cl)cc1 | – | inconclusive [cytotoxic, partial curve]
